Patent US11178870B2 (priority 2017, dated 2021)

What was measured:
[1] = system: Colletotrichum orbiculare; settings: 250 ppm spray, 2.5 ml/pot; investigated 6 to 10 days after inoculation
[2] = system: Magnaporthe grisea; type: in vivo; settings: class of control value, Table 7
[3] = system: Phytophthora infestans; type: in vivo; settings: class of control value, Table 7

Compound | Test H control value (anthracnose on cucumber) [1] | Test A control value (blast on rice) [2] | Test F control value (late blight on tomato) [3]
CCn1c(-c2c(F)cccc2Cl)c(-n2cc(F)cn2)ccc1=O [Compound 378] | H (H shows the control value more than 50%) | H (H shows the control value more than 50%) | H (H shows the control value more than 50%)
CCn1c(-c2ccccc2F)c(-n2cc(F)cn2)cc(Cl)c1=O [Compound 383] | H (H shows the control value more than 50%) | H (H shows the control value more than 50%) | L (L shows the control value of 50% or less)
CN(C)n1c(-c2c(F)cccc2F)c(-c2ccsc2Cl)cc(Br)c1=O [Compound 455] | L (L shows the control value of 50% or less) | L (L shows the control value of 50% or less) | L (L shows the control value of 50% or less)
Cc1cnn(-c2cc(Br)c(=O)n(CC(F)F)c2-c2ccccc2Br)c1Cl [Compound 409] | L (L shows the control value of 50% or less) | H (H shows the control value more than 50%) | L (L shows the control value of 50% or less)
